According to PubChem BioAssay AID686979 (National Center for Advancing Translational Sciences (NCATS), 2013):
In all, about 420,000 compounds went through this assay and about 50,000 (12%) were called active. The shares of active, inactive and inconclusive entries below differ from those in the screen. The call rests on the fitted dose curve; in most records, active means well fitted inhibition curve with a large enough effect; inconclusive means small, poorly fitted or top-dose-only effect; inactive means flat fitted curve, though single readings scatter. No potency is given beside an inconclusive call; the fits are too rough.

experiment: qHTS for Inhibitors of human tyrosyl-DNA phosphodiesterase 1 (TDP1): qHTS in cells in presence of CPT; details: chicken DT40 Tdp1-/-;hTDP1 cells + 20 nM CPT, ATP luminescence, 48 h; activity change, negative = growth inhibition: at 46.2 µM (top of the series); further: nearly all actives have a fitted effect of over 55% in size
How it was run: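 Chicken DT40 Tdp1-/- cells complemented with human TDP1, 400 cells/well, exposed to compounds plus 20 nM camptothecin for at least 48 h at 37 C; viability read as ATP content by CellTiter-Glo luminescence.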
On the % scale 0 is the no-effect control and ±100 the full control effect; potency means the concentration at half of the fitted maximal effect; tags describe the fitted curve by direction and shape.

SMILES | activity change, negative = growth inhibition | Potency
Cc1cccc(N2C(=O)c3cccc4cccc(c34)C2=O)c1 | inactive: -28.4% | –
CCn1cc(C(=O)NCc2ccccc2Cl)c(=O)c2cc(S(=O)(=O)N3CCCCCC3)ccc21 | – | inconclusive [inhibitor, single point]
O=C(NCc1ccccn1)c1ccccc1OCc1ccc(Cl)cc1Cl | – | inconclusive [inhibitor, single point]
O=C(O)c1ccc2c(c1)CCC2 | – | inconclusive [inhibitor, single point]
CCCCC(=O)Nc1ccc(C(=O)OCc2cc(=O)n3ccsc3n2)cc1 | – | inconclusive [inhibitor, single point]
CSCC[C@H](NC(=O)[C@H](Cc1c[nH]c2ccccc12)NC(=O)CCNC(=O)OC(C)(C)C)C(=O)N[C@@H](CC(=O)O)C(=O)N[C@@H](Cc1ccccc1)C(N)=O | inactive: -10% | –
CCCCCNCc1cccc(Br)c1 | – | inconclusive [inhibitor, single point]
O=C(CNC(=O)c1ccc(Br)o1)Nc1ccc(F)c(S(=O)(=O)N2CCOCC2)c1 | inactive: -15.5% | –
CCc1ccc(C(CC(=O)O)N2Cc3ccccc3C2=O)cc1 (stereo not drawn) | inactive: -2.05% | –
COc1ccc(CCN(C)C(=O)C2CCN(Cc3cccc(OC)c3OC)CC2)cc1OC | inactive: 8.74% | –
CCn1c(=O)c(C(=O)NNC(=O)c2ccccc2)c(O)c2ccccc21 | – | inconclusive [inhibitor, single point]
O=c1ccc(-c2ccccc2)nn1Cc1ccccc1 | – | inconclusive [inhibitor, single point]
COc1ccc(NC(=O)c2ccc(-c3c(C)noc3C)c3ccoc23)cc1 | – | inconclusive [inhibitor, single point]
COc1ccc(Cn2c(SCc3ccc(C(=O)NCc4cccs4)cc3)nc3ccncc32)cc1 | – | active: 18.4 µM
Cc1ccc(-c2[nH]ncc2C(=O)c2cccc(F)c2)c(O)c1 | – | inconclusive [inhibitor, single point]
Cc1cccc(-n2c(N)c(C(=O)N3CCN(C)CC3)sc2=S)c1 | – | inconclusive [inhibitor, single point]
Cc1cc(CNC(=O)[C@H]2C[C@@H]2[C@H](NP(=O)(c2ccccc2)c2ccccc2)c2ccccc2)nn1C | – | inconclusive [inhibitor, single point]
O=C(CSc1nnc(-c2ccc(Cl)cc2)c(-c2ccc(Cl)cc2)n1)NC1CCCC1 | – | inconclusive [inhibitor, single point]
COc1cccc(NC(=O)CN2C(=O)CSc3ccc(S(=O)(=O)N4CCC(C)CC4)cc32)c1 | – | inconclusive [inhibitor, single point]
S=C(Nc1cccc(Cl)c1)N(CCCN1CCCC1)Cc1cccn1Cc1ccc(Cl)cc1 | – | inconclusive [inhibitor, single point]
O=C(CCCn1c(=O)[nH]c2ccsc2c1=O)N1CCN(c2ccc(Cl)cc2)CC1 | – | inconclusive [inhibitor, single point]
NC(=O)C1(N2CCCCC2)CCN(Cc2nc(-c3cccs3)no2)CC1 | – | inconclusive [inhibitor, single point]
CCOc1cccc(C(=O)NC2=NCCS2)c1 | inactive: 2.68% | –
O=S(=O)(c1ccccc1Cl)N1CCC(O)(c2cccnc2)CC1 | inactive: -0.0687% | –

SMILES | activity change, negative = growth inhibition | Potency
O=[N+]([O-])c1ccc(NNS(=O)(=O)c2cc(Cl)ccc2Cl)nc1 | – | active: 20.6 µM
CCCCn1c(N)c(N(CC(C)C)C(=O)c2ccc(OCc3c(C)noc3C)cc2)c(=O)[nH]c1=O | inactive: 2.68% | –
Cc1ccc(NC(=O)Cn2c(=O)cc(-c3ccccc3)c3c(C)nn(C)c32)c(Cl)c1 | inactive: -27.3% | –
Cc1[nH]c2c(C(=O)NCC3Cc4cccc(-c5cccnc5)c4O3)cccc2c1C (stereo not drawn) | inactive: -3.45% [at 9.04 µM] | –
CCOc1ccc(CN(C(=O)c2cc3ccccc3oc2=O)C2CCS(=O)(=O)C2)cc1 (stereo not drawn) | inactive: -0.138% | –
O=CN1CCN(c2c([N+](=O)[O-])c(=O)oc3ccccc23)CC1 | inactive: -18.2% | –
COc1cc(OC)c(C(=O)OCCCOC(=O)c2cc(OC)c(OC)cc2OC)cc1OC | inactive: -12.3% | –
COc1ccc(-n2nc(C(=O)NCC(=O)N(C)Cc3ccccc3)c3ccccc3c2=O)c(OC)c1 | inactive: -5.81% | –
O=C1NC[C@H](c2ccccc2)OC(=O)[C@H](Cc2ccc(F)cc2)C/C=C\C[C@@H]1CC(=O)N(CCO)Cc1ccccc1 | – | active: 20.6 µM
CC12CC3CC(C)(C1)CC(C(=O)NC1=NCCS1)(C3)C2 | inactive: -2.23% | –
CC(C)(C)NC(=O)N1c2ccccc2Sc2ccccc21 | inactive: -28.9% | –
CNc1cncc(-c2cc(C)c(O)c(C)c2)n1 | – | active: 4.11 µM
O=C(c1csc(Nc2cccc3ccccc23)n1)N1CCCC1 | – | inconclusive [inhibitor, single point]
CCOC(=O)CC(NC(=O)CCc1c(C)nc2cc(-c3ccccc3)nn2c1C)c1ccc(C)cc1 (stereo not drawn) | – | active: 16.4 µM
Cc1cc(C)nc(SCc2cccc(C(=O)O)c2)n1 | inactive: -9.21% | –
O=C(CSc1ccccn1)Nc1nonc1[N+](=O)[O-] | – | active: 3.66 µM
O=C(COC(=O)/C=C/c1cccc(Br)c1)NC1CCCC1 | inactive: 1.57% | –
COCCNc1ncnc2c1ncn2[C@H]1CN(Cc2ccncc2)C[C@@H](CO)O1 | inactive: -11.8% | –
COc1cccc(NC(=O)Nc2cccs2)c1 | – | inconclusive [inhibitor, partial curve]
c1ccc(CNc2nc(NCC3CC3)nc3cc(-c4ccccc4)sc23)cc1 | – | active: 9.2 µM
CC(C)(C)n1nnnc1C(c1ccc(F)cc1)N(Cc1ccc(F)cc1)Cc1ccco1 (stereo not drawn) | – | inconclusive [inhibitor, single point]
COc1cc2oc(=O)ccc2cc1-c1c(OC)ccc2ccc(=O)oc12 | – | inconclusive [inhibitor, single point]
Cc1ccccc1-c1nc(CN(C)C(C)c2ccon2)c(C)o1 (stereo not drawn) | – | inconclusive [inhibitor, single point]
O=c1[nH][nH]c2c1[C@H](C1CCCC1)O[C@H](CCc1ccccc1)C2 | – | active: 20.6 µM
